Measurements published in PubChem BioAssay AID651740 (Broad Institute, 2012).
Hit rate of the full screen: of about 5,600 compounds, about 1,200 (21%) were called active. The inconclusive results got no clear call from the source; some entries with a clear call stand among them for comparison.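 How the source made its calls: active means mean inhibition above about 95%, with at least 55% of replicates also reaching it (limit read from the data); inconclusive means meets just one of the two conditions; inactive means meets neither condition.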

Experiment: Trypanosoma cruzi growth blockers in host fibroblasts – NIH3T3 host cells, beta-gal parasites, cherry-pick, set 2, confirmation (AID 651740);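 further: plate controls were neutral control median for no effect and positive control median for full effect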
Settings: T. cruzi beta-gal in NIH3T3, GalScreen luminescence, 90 h; at 2.09 µM; active compounds read high
Procedure, shortened: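 Material: beta-gal T. cruzi in mouse NIH/3T3 fibroblasts / Medium: DMEM, 2% FBS, 1% PSG / Also added: T. cruzi trypomastigotes, 5000 per well / Compound: single dose, 100 nL pinned DMSO compound / Timing: ≥90 h co-culture with compound, 60 min detection reagent / Technique: GalScreen lysis and luminescent beta-gal signal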

Compound	inhibition
O=C(NC1CCCC1)N1CCCCN2[C@@H](CO)[C@@H](c3ccc(-c4ccncc4)cc3)[C@@H]2C1	inactive: 42%
C[C@H](CO)N1C[C@H](C)[C@@H](CN(C)S(=O)(=O)c2ccc(F)cc2)OCCCC[C@H](C)Oc2ccc(NS(=O)(=O)c3ccc(Cl)cc3)cc2C1=O	inconclusive: 95.1%
C[C@@H]1CN([C@H](C)CO)S(=O)(=O)c2ccc(C#CC3CCCC3)cc2O[C@@H]1CN(C)C(=O)c1cccc(F)c1	inconclusive: 95.7%
C[C@@H]1CCCCO[C@H](CN(C)Cc2ccc(C(F)(F)F)cc2)[C@@H](C)CN([C@H](C)CO)C(=O)c2cc(NC(=O)Nc3ccccc3)ccc2O1	active: 111%
COc1ccc(NC(=O)N(C)C[C@H]2OCCCC[C@@H](C)Oc3ccc(NC(=O)Nc4ccc(F)cc4)cc3C(=O)N([C@H](C)CO)C[C@H]2C)cc1	inactive: 39.7%
O=C(C[C@@H]1C[C@H]2c3cc(NC(=O)NC4CCCC4)ccc3O[C@H]2[C@H](CO)O1)NCc1ccc(-c2ccccc2)cc1	inconclusive: 99.4%
COc1ccc(C#Cc2ccc([C@@H]3[C@@H](CO)N4CCCCN(Cc5ccncc5)C[C@H]34)cc2)cc1	inconclusive: 97.9%
COc1cccc(NC(=O)N(C)C[C@H]2Oc3cc(-c4ccccc4F)ccc3S(=O)(=O)N([C@H](C)CO)C[C@H]2C)c1	inactive: 73.6%
CCCNC(=O)N1[C@H](C#N)[C@H](c2ccc(-c3cccc(OC)c3)cc2)[C@@H]1CO	active: 112%
Cc1noc(C)c1S(=O)(=O)N(C)C[C@@H]1OCCCC[C@H](C)Oc2ccc(NC(=O)Nc3ccc(C(F)(F)F)cc3)cc2C(=O)N([C@H](C)CO)C[C@@H]1C	active: 113%
COc1ccc(S(=O)(=O)N2CCCCN3[C@@H](CO)[C@H](c4ccc(C#CC5CC5)cc4)[C@@H]3C2)cc1	inactive: 66.4%
COc1ccccc1C#Cc1ccc([C@H]2[C@H](CO)N3CCCCN(C(=O)C4CCC4)C[C@@H]23)cc1	inconclusive: 95.8%
Cc1ccc(-c2ccc3c(c2)O[C@H](CN(C)C(=O)C2CCCCC2)[C@H](C)CN([C@H](C)CO)S3(=O)=O)cc1	inconclusive: 98.5%
C[C@@H]1CCCCO[C@H](CN(C)C(=O)Nc2ccc(C(F)(F)F)cc2)[C@@H](C)CN([C@H](C)CO)C(=O)c2cc(NC(=O)Nc3ccc(C(F)(F)F)cc3)ccc2O1	inconclusive: 100%
COc1ccc(S(=O)(=O)N(C)C[C@H]2Oc3ccc(NC(=O)Nc4ccc(C(F)(F)F)cc4)cc3C(=O)N([C@H](C)CO)C[C@H]2C)cc1	inactive: 25.1%
C[C@@H]1CCCCO[C@@H](CN(C)Cc2ccc(C(F)(F)F)cc2)[C@@H](C)CN([C@H](C)CO)C(=O)c2cc(NC(=O)Nc3ccc(C(F)(F)F)cc3)ccc2O1	active: 105%
C[C@@H]1CN([C@@H](C)CO)S(=O)(=O)c2ccc(C3=CCCCC3)cc2O[C@@H]1CN(C)C(=O)c1ccc(F)cc1	inactive: 94.2%
Cn1cnc(S(=O)(=O)N2CC[C@@H]3[C@H]2c2cc(-c4ccccc4)ccc2N[C@@H]3CO)c1	inconclusive: 96.6%
C[C@H](CO)N1C[C@H](C)[C@H](CN(C)Cc2ccc(-c3ccccc3)cc2)Oc2c(NC(=O)c3ccncc3)cccc2C1=O	inconclusive: 98.9%
COc1cccc(-c2ccc3c(c2)O[C@H](CN(C)C(=O)C2CCCCC2)[C@H](C)CN([C@H](C)CO)S3(=O)=O)c1	active: 98.3%
COc1cccc(S(=O)(=O)N(C)C[C@H]2OCc3cn(nn3)CCCC(=O)N([C@H](C)CO)C[C@@H]2C)c1	inactive: 20.8%
C[C@H](O)C#Cc1ccc2c(c1)O[C@@H](CN(C)Cc1ccncc1)[C@H](C)CN([C@H](C)CO)S2(=O)=O	inactive: 72.5%
O=C([C@H]1[C@H](CO)[C@H]2Cn3c(cccc3=O)[C@@H]1N2Cc1cccc(Cl)c1)N1CCOCC1	inactive: 26.8%
CO[C@@H]1CN(C)C(=O)c2ccc(NC(=O)NC3CCCCC3)cc2OC[C@@H](C)N(CCc2ccccc2)C[C@H]1C	inactive: 50.6%
Cc1ccc(S(=O)(=O)Nc2ccc3c(c2)C(=O)N([C@H](C)CO)C[C@@H](C)[C@@H](CN(C)S(=O)(=O)c2ccc(C)cc2)OCCCC[C@H](C)O3)cc1	inconclusive: 103%
Cc1ccc(-c2ccc([C@H]3[C@@H](CO)N4CCCCN(C(=O)Nc5ccccc5)C[C@@H]34)cc2)cc1	inactive: 85.8%
C[C@H]1CCCCO[C@@H](CN(C)C(=O)Nc2ccc(C(F)(F)F)cc2)[C@@H](C)CN([C@@H](C)CO)C(=O)c2cc(NS(=O)(=O)c3ccccc3)ccc2O1	active: 107%
Cc1ccc(-c2ccc3c(c2)O[C@@H](CN(C)Cc2cccnc2)[C@H](C)CN([C@H](C)CO)S3(=O)=O)cc1	active: 104%

Compound	inhibition
COCC#Cc1ccc([C@H]2[C@@H](CO)N3CCCCN(C(=O)Nc4cc(F)ccc4F)C[C@H]23)cc1	inactive: 62.5%
CCCC#Cc1ccc2c(c1)O[C@@H](CN(C)S(C)(=O)=O)[C@@H](C)CN([C@@H](C)CO)S2(=O)=O	inconclusive: 95%
C[C@@H]1CN([C@@H](C)CO)S(=O)(=O)c2ccc(C#CC3CCCC3)cc2O[C@@H]1CN(C)Cc1cccnc1	inconclusive: 95.7%
N#Cc1cccc(-c2ccc3c(c2)[C@H]2[C@H](CCN2C(=O)c2ccc4c(c2)OCO4)[C@@H](CO)N3)c1	active: 99.7%
N#C[C@@H]1[C@@H](c2ccc(C#CC3CC3)cc2)[C@H](CO)N1C(=O)Cc1ccccn1	inactive: 75.4%
C[C@@H]1CN([C@@H](C)CO)C(=O)Cc2cc(N(C)C)ccc2O[C@H]1CN(C)Cc1ccc(C(=O)Nc2ccccc2N)cc1	inconclusive: 96.1%
Cc1cc(C(=O)Nc2ccc3c(c2)C(=O)N(C)[C@@H]2CC[C@H](CC(=O)NCc4ccc(-c5ccccc5)cc4)O[C@@H]2CO3)no1	inconclusive: 99.2%
Cc1noc(C)c1S(=O)(=O)N(C)C[C@H]1OCCCC[C@H](C)Oc2ccc(NC(=O)Nc3cccc4ccccc34)cc2C(=O)N([C@@H](C)CO)C[C@@H]1C	inconclusive: 98.3%
C[C@@H]1CN([C@@H](C)CO)C(=O)c2cc(NC(=O)Nc3ccc(F)cc3)ccc2O[C@@H](C)CCCCO[C@H]1CN(C)Cc1ccc(C(F)(F)F)cc1	active: 112%
C[C@H](CO)N1C[C@H](C)[C@@H](CN(C)S(=O)(=O)c2ccc(F)cc2)Oc2cc(-c3cccc(F)c3)ccc2S1(=O)=O	active: 104%
C[C@@H]1CN([C@@H](C)CO)C(=O)c2cc(N(C)C)ccc2O[C@@H](C)CCCCO[C@H]1CN(C)Cc1ccc2c(c1)OCO2	inactive: 4.56%
CN1C(=O)c2cc(NS(=O)(=O)c3ccc(F)cc3)ccc2OC[C@H]2O[C@H](CC(=O)O)CC[C@H]21	inactive: 28.1%
N#C[C@@H]1[C@H](c2ccc(C#Cc3cccc(F)c3)cc2)[C@@H](CO)N1C(=O)C1CCCC1	inconclusive: 98.5%
C[C@@H]1CN([C@@H](C)CO)S(=O)(=O)c2ccc(C#CCN(C)C)cc2O[C@H]1CN(C)Cc1ccncc1	inconclusive: 97.4%
C[C@@H]1CN([C@H](C)CO)S(=O)(=O)c2ccc(/C=C/c3ccccc3)cc2O[C@@H]1CN(C)C(=O)Nc1cccc(F)c1	active: 108%
O=C(Nc1cccc(F)c1)N1CCCCN2[C@H](C1)[C@H](c1ccc(C#Cc3ccccc3)cc1)[C@@H]2CO	inconclusive: 98.1%
C[C@@H]1CN([C@H](C)CO)C(=O)c2cc(NC(=O)Nc3cccc4ccccc34)ccc2O[C@@H]1CN(C)Cc1ccc(C(F)(F)F)cc1	inactive: 88.2%
CN(C)C(=O)c1ccc(-c2ccc([C@H]3[C@@H](CO)N4CCCCN(C(=O)C5CCC5)C[C@H]34)cc2)cc1	inconclusive: 95.5%
C[C@H]1CN([C@@H](C)CO)C(=O)c2cccc(NC(=O)NC3CCCCC3)c2O[C@H]1CN(C)Cc1ccc(C(=O)Nc2ccccc2N)cc1	inconclusive: 97%
C[C@H](CO)N1C[C@H](C)[C@@H](CN(C)C(=O)Nc2ccc(C(F)(F)F)cc2)OCCCC[C@H](C)Oc2ccc(NS(=O)(=O)c3ccccc3)cc2C1=O	inactive: 71.1%
CC(C)CC#Cc1ccc2c(c1)O[C@H](CN(C)C(=O)Nc1ccccc1)[C@@H](C)CN([C@@H](C)CO)S2(=O)=O	inconclusive: 99.1%
O=C(C[C@@H]1CC[C@@H]2[C@H](COC[C@@H](O)CN2S(=O)(=O)c2cccc(Cl)c2)O1)Nc1ccc(-c2ccccc2)cc1	inconclusive: 95.7%
COc1ccc(NC(=O)N(C)C[C@@H]2OCCCC[C@H](C)Oc3ccc(NC(=O)Nc4ccc(C(F)(F)F)cc4)cc3C(=O)N([C@@H](C)CO)C[C@H]2C)cc1	inconclusive: 97.5%
Cc1ccc(S(=O)(=O)Nc2ccc3c(c2)C(=O)N([C@@H](C)CO)C[C@@H](C)[C@H](CN(C)S(=O)(=O)c2ccc(C)cc2)OCCCC[C@@H](C)O3)cc1	inconclusive: 96.2%
Cc1ccc(S(=O)(=O)N2C[C@H](O)COC[C@H]3O[C@@H](CC(=O)N[C@@H]4CCN(Cc5ccccc5)C4)CC[C@@H]32)cc1	inactive: 60.9%
Cc1ccc(S(=O)(=O)Nc2ccc3c(c2)CC(=O)N([C@@H](C)CO)C[C@@H](C)[C@H](CN(C)Cc2ccc4c(c2)OCO4)O3)cc1	inconclusive: 96%
O=C(C[C@H]1CC[C@@H]2[C@H](COC[C@H](O)CN2S(=O)(=O)c2cccc(F)c2)O1)Nc1ccc(-c2ccccc2)cc1	inactive: 88.1%
